# Data as given in PubChem BioAssay AID1508642 (National Center for Advancing Translational Sciences (NCATS), 2021).
# In all, about 43,000 compounds went through this assay and about 200 (0.47%) were called active. Not shown: some 12% with an inconclusive outcome. Calls follow the shape of the dose curve; as a rule, active = well fitted cell-killing curve with a large enough effect; inconclusive = small, poorly fitted or top-dose-only effect, or effect the other way; inactive = flat fitted curve, though single readings scatter. Some of the results follow.
# Test: Cell viability qHTS assay in S16 Pmp22-F2sN cells; also: nearly all actives have a fitted effect of over 65% in size
# Settings: S16 Pmp22-F2sN Schwann cells (luciferase reporters placed in the Pmp22 gene) viability, CellTiter-Glo, 24 h; series mostly up to 57.5 µM; activity change, negative = cytotoxicity: at the top concentration
# In short: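 S16 Schwann cells carrying the Pmp22-F2sN reporter, seeded in 1536-well format, were exposed to library compounds for 24 h at 37C. Viability was read as CellTiter-Glo luminescence after 15 min at room temperature.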
# % is scaled to controls: 0 for no effect and ±100 for the full control effect; potency is read from the fitted curve at half-maximal effect.
SMILES,"activity change, negative = cytotoxicity",Potency
CC(C)c1ccc(NC(=O)CSC2=Nc3ccccc3C3=NC(CC(=O)NCc4ccc(F)cc4)C(=O)N23)cc1 (stereo unspecified),inactive: -1.42%,–
COc1ccc(CNC(=O)c2ccc3c(c2)N(Cc2cccc(Cl)c2)C(=O)c2ccccc2S3)c(OC)c1,inactive: 2.09%,–
Cc1ccc(CNC(=O)c2nc(SCc3ccc(C)cc3)ncc2Cl)cc1,inactive: 5.71%,–
Cc1ccc(-n2c(=O)c3cccnc3n2CC(=O)Nc2cccc(C)c2C)cc1,inactive: -15.7%,–
Cc1cccn2c(Nc3ccccc3)c(-c3ccc(N4CCOCC4)cc3)nc12,inactive: -24.4%,–
CC(C)c1ccc(OC(=O)c2cc(-c3ccc4c(c3)OCCO4)on2)cc1,inactive: 1.72%,–
COCCCNC(=O)CCn1c(=O)c2ccccc2n(CC(=O)Nc2c(C)cc(C)cc2C)c1=O,inactive: -0.701%,–
Cc1ccc2nc(-c3ccc(Cl)c(NC(=O)c4cccnc4)c3)oc2c1,inactive: -5.15%,–
CC(=O)N1CCCc2cc(S(=O)(=O)N3CCCCC3)ccc21,inactive: 1.59%,–
CN(C(=O)c1cc2c(=O)oc3ccccc3c2s1)c1ccc(F)cc1,inactive: 23.6%,–
Cc1ccc(Cl)cc1N1CCN(C(=O)C2CCCN(S(=O)(=O)c3ccc(Br)s3)C2)CC1 (stereo unspecified),inactive: -18.5%,–
COc1ccccc1NC(=O)CCn1cnc2ccccc2c1=O,inactive: 6.97%,–
O=S(=O)(NCC(c1ccco1)S(=O)(=O)c1cccs1)c1ccc(F)c(C(F)(F)F)c1 (stereo unspecified),–,active: 2.51 µM
Cc1ccc(OCC(=O)NCC(=O)OCc2cc(=O)n3nc(C)sc3n2)cc1,inactive: -12%,–
CCOC(=O)C1CCN(S(=O)(=O)c2cc(-c3onc(C)c3C)ccc2OC)CC1,inactive: -0.961%,–
COc1ccc(C(=O)N2CCC(c3nc4ccccc4o3)CC2)cc1,inactive: -2.1%,–
CCOc1ccc(C(=O)NCCc2csc(-c3ccc(C(F)(F)F)cc3)n2)cc1OCC,inactive: 22.7%,–
CCOc1ccccc1CNC(=O)C1CCN(C2=NS(=O)(=O)C(c3ccc(C)c(C)c3)=C2C)CC1,inactive: 1.66%,–
CCCN(C(=O)c1nn(-c2ccc(OC)c(Cl)c2)c(=O)c2c1c1ccccc1n2C)c1ccccc1F,inactive: 8.49%,–
COc1ccc(OC)c(NC(=O)Cn2cnc3sc(C)c(S(=O)(=O)N4CCN(c5ccccc5OC)CC4)c3c2=O)c1,inactive: -1.81%,–
COc1cccc(NC(=O)c2sc3nc(C)c(C(=O)Nc4ccc(C)cc4C)c(-c4sccc4C)c3c2N)c1,inactive: 0.509%,–
O=c1c2oc3ccccc3c2n(Cc2cccc(F)c2)c(=O)n1Cc1ccco1,inactive: 3.48%,–
CC(C)c1ccc2oc(-c3cc(NC(=O)c4cccs4)ccc3Cl)nc2c1,inactive: 6.53%,–

SMILES,"activity change, negative = cytotoxicity",Potency
c1ccc(Cc2nnc(SCc3nc(-c4cccs4)no3)n2-c2ccccc2)cc1,inactive: -19.5%,–
Cc1ccccc1N1CCN(S(=O)(=O)c2nnc(NC(=O)c3ccccc3)s2)CC1,inactive: -7%,–
COc1ccc(C(=O)Nc2cc(C(C)C)c(O)c(S(=O)(=O)c3ccc(OC)cc3)c2C)cc1,inactive: 1.74%,–
COc1ccc(S(=O)(=O)c2c(Nc3ccc(F)cc3)sc(C(=O)c3ccc(C)cc3C)c2N)cc1,inactive: -8.27%,–
CCCn1c(=O)n(-c2cc(Cl)c(OC)cc2OC)c(=O)c2c3c(sc21)CN(C(C)=O)CC3,inactive: 29.5%,–
CC1=C(C(=O)Nc2cccnc2)C(c2cccc(O)c2)n2nc(SCc3ccccc3)nc2N1 (stereo unspecified),inactive: 2.74%,–
Cc1ccc([C@H]2Nc3ccc(S(=O)(=O)Nc4cccc(Cl)c4C)cc3[C@H]3C=CC[C@H]32)cc1,inactive: 0.0848%,–
CCn1cc(CCC(=O)NCc2ccc(F)cc2)c2ccccc21,inactive: 7.18%,–
Cc1ccc(Cl)cc1NC(=O)Nc1c(C)n(C)n(-c2ccccc2)c1=O,inactive: 11.1%,–
CCOC(=O)CSc1nc2ccc(NC(=O)c3ccc(F)cc3)cc2s1,inactive: 1.94%,–
CCOC(=O)c1cccc(NC(=O)CCc2c(C)nc3cc(-c4ccc(Cl)cc4)nn3c2C)c1,inactive: 1.73%,–
COc1ccc(NC(=O)Cn2cc(S(=O)(=O)c3ccc(C)cc3)c(=O)c3ccccc32)cc1OC,inactive: 6.68%,–
CCOc1ccccc1Nc1nc(-c2cccc(Cl)c2)c2c(n1)-c1ccccc1OC2,inactive: 3.85%,–
Cc1ccc(CSCC(=O)NCc2ccc(F)cc2)cc1,inactive: 3.85%,–
COc1ccc(-c2noc(-c3ccc(NCc4ccco4)c([N+](=O)[O-])c3)n2)cc1,inactive: 9.43%,–
COc1ccc(-c2ccc(CNc3ccc4[nH]c(=O)[nH]c4c3)o2)cc1Cl,inactive: -9.25%,–
Cn1cnnc1SCC(=O)Nc1cc(C(=O)O)cc(C(=O)O)c1,inactive: 3.42%,–
COc1cc(-c2noc(CSc3nc(-c4ccccc4)cc(=O)[nH]3)n2)cc(OC)c1OC,inactive: -1.45%,–
Cc1cccc(C(=O)NCC(c2ccc3c(c2)OCO3)N2CCN(c3ccccc3F)CC2)c1 (stereo unspecified),inactive: -28.5%,–
COc1ccc(NC(=O)c2sc3nc4c(cc3c2N)CN(C(C)C)CC4)c(OC)c1,inactive: -10.2%,–
Cc1ccc(-n2nc(C)c3c(C)cc(=O)n(CC(=O)Nc4ccc(Br)cc4F)c32)cc1,inactive: 21.3%,–
COc1ccc(S(=O)(=O)c2c(Nc3ccc(C)cc3)sc(C(=O)c3ccc(C)cc3)c2N)cc1,inactive: 8.68%,–
Cc1cc(=O)n2[nH]c(NCc3ccc(F)cc3)nc2n1,inactive: 0.0595%,–
